# Measurements: the supplement of paper PMC10369915
# Some of the results follow. No stated cut-off is given here; in the data, active = 3.2 or more and inactive = the rest. Only a few entries rise above the background.
# Target: SHP2 C-SH2 domain E139D
# Assay: enrichment score (SH2-bound / input frequency) (ratio); bacterial display of known human phosphotyrosine sites (pTyr-Var adds point mutants) read by sequencing; higher = stronger binding; tyrosines were phosphorylated by kinases first
# Settings: peptide library: pTyr-Var
# 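Further: displayed peptides selected on beads carrying the immobilized SH2 domain, with library peptides lacking any tyrosine serving as negative controls.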
row,Binder,enrichment score
1,EFTAGYNVKFD [GPX4_Y123_A120T],inactive: 1.46
2,LIDSSYLTRTA [GREB1L_Y1063],inactive: 0.83
3,PLYSKYWPNHI [GREB1L_Y1560_R1558S],inactive: 1.19
4,EGNERYEGFCV [GRIA3_Y451_YF],inactive: 0.461
5,EKMWSYMKSAE [GRIA3_Y705],inactive: 1.13
6,SNMPTYSGHFT [GRIN2A_Y1224],inactive: 0.902
7,SNMPTYSGHFS [GRIN2A_Y1224_T1229S],inactive: 0.775
8,LISVSYDDWDY [GRIN2A_Y281],inactive: 2.02
9,LIFVSYDDWDF [GRIN2A_Y281_S278F_YF],active: 3.95
10,LISVSYDDWDF [GRIN2A_Y281_YF],inactive: 1.47
11,IGEVVYQRAVM [GRIN2A_Y502],inactive: 1.22
12,IGEVVYQRAAM [GRIN2A_Y502_V506A],inactive: 0.907
13,LDAFIYDAAVL [GRIN2A_Y730],inactive: 0.785
14,AAVLNYKAGRD [GRIN2A_Y737],inactive: 0.737
15,AAVLNYKAWRD [GRIN2A_Y737_G740W],inactive: 1.2
16,AALLNYKAGRD [GRIN2A_Y737_V734L],inactive: 1.03
17,DNLNNYVFQGQ [GRIN2A_Y978],inactive: 0.995
18,EIKLAYRRRPP [GRIN2B_Y1109_E1106K],inactive: 0.256
19,PDMHSYMVRYN [GRIN2D_Y732],inactive: 0.855

# Target: SHP2 C-SH2 domain wild-type
# Assay: as above
# Settings: peptide library: pTyr-Var
row,Binder,enrichment score
1,EFTAGYNVKFD [GPX4_Y123_A120T],inactive: 0.742
2,LIDSSYLTRTA [GREB1L_Y1063],inactive: 0.702
3,PLYSKYWPNHI [GREB1L_Y1560_R1558S],inactive: 0.979
4,EGNERYEGFCV [GRIA3_Y451_YF],inactive: 0.598
5,EKMWSYMKSAE [GRIA3_Y705],inactive: 0.82
6,SNMPTYSGHFT [GRIN2A_Y1224],inactive: 0.625
7,SNMPTYSGHFS [GRIN2A_Y1224_T1229S],inactive: 0.703
8,LISVSYDDWDY [GRIN2A_Y281],inactive: 1.58
9,LIFVSYDDWDF [GRIN2A_Y281_S278F_YF],active: 3.42
10,LISVSYDDWDF [GRIN2A_Y281_YF],inactive: 1.42
11,IGEVVYQRAVM [GRIN2A_Y502],inactive: 0.978
12,IGEVVYQRAAM [GRIN2A_Y502_V506A],inactive: 0.665
13,LDAFIYDAAVL [GRIN2A_Y730],inactive: 0.97
14,AAVLNYKAGRD [GRIN2A_Y737],inactive: 0.614
15,AAVLNYKAWRD [GRIN2A_Y737_G740W],inactive: 0.808
16,AALLNYKAGRD [GRIN2A_Y737_V734L],inactive: 0.782
17,DNLNNYVFQGQ [GRIN2A_Y978],inactive: 0.875
18,EIKLAYRRRPP [GRIN2B_Y1109_E1106K],inactive: 0.183
19,PDMHSYMVRYN [GRIN2D_Y732],inactive: 0.722

# Target: SHP2 N-SH2 domain L43F
# Assay: as above
# Settings: peptide library: pTyr-Var
row,Binder,enrichment score
1,EFTAGYNVKFD [GPX4_Y123_A120T],inactive: 1.19
2,LIDSSYLTRTA [GREB1L_Y1063],inactive: 0.785
3,PLYSKYWPNHI [GREB1L_Y1560_R1558S],inactive: 1.12
4,EGNERYEGFCV [GRIA3_Y451_YF],inactive: 0.61
5,EKMWSYMKSAE [GRIA3_Y705],inactive: 1.1
6,SNMPTYSGHFT [GRIN2A_Y1224],inactive: 0.657
7,SNMPTYSGHFS [GRIN2A_Y1224_T1229S],inactive: 0.742
8,LISVSYDDWDY [GRIN2A_Y281],inactive: 1.65
9,LIFVSYDDWDF [GRIN2A_Y281_S278F_YF],active: 4.35
10,LISVSYDDWDF [GRIN2A_Y281_YF],inactive: 1.73
11,IGEVVYQRAVM [GRIN2A_Y502],inactive: 0.936
12,IGEVVYQRAAM [GRIN2A_Y502_V506A],inactive: 0.819
13,LDAFIYDAAVL [GRIN2A_Y730],inactive: 0.958
14,AAVLNYKAGRD [GRIN2A_Y737],inactive: 0.516
15,AAVLNYKAWRD [GRIN2A_Y737_G740W],inactive: 1.2
16,AALLNYKAGRD [GRIN2A_Y737_V734L],inactive: 0.785
17,DNLNNYVFQGQ [GRIN2A_Y978],inactive: 1
18,EIKLAYRRRPP [GRIN2B_Y1109_E1106K],inactive: 0.206
19,PDMHSYMVRYN [GRIN2D_Y732],inactive: 0.645

# Target: SHP2 N-SH2 domain T42A
# Assay: as above
# Settings: peptide library: pTyr-Var
row,Binder,enrichment score
1,EFTAGYNVKFD [GPX4_Y123_A120T],inactive: 1.02
2,LIDSSYLTRTA [GREB1L_Y1063],inactive: 0.578
3,PLYSKYWPNHI [GREB1L_Y1560_R1558S],inactive: 0.967
4,EGNERYEGFCV [GRIA3_Y451_YF],inactive: 0.689
5,EKMWSYMKSAE [GRIA3_Y705],inactive: 0.928
6,SNMPTYSGHFT [GRIN2A_Y1224],inactive: 0.487
7,SNMPTYSGHFS [GRIN2A_Y1224_T1229S],inactive: 0.692
8,LISVSYDDWDY [GRIN2A_Y281],inactive: 1.79
9,LIFVSYDDWDF [GRIN2A_Y281_S278F_YF],inactive: 2.89
10,LISVSYDDWDF [GRIN2A_Y281_YF],inactive: 2.22
11,IGEVVYQRAVM [GRIN2A_Y502],inactive: 1.15
12,IGEVVYQRAAM [GRIN2A_Y502_V506A],inactive: 0.87
13,LDAFIYDAAVL [GRIN2A_Y730],inactive: 0.849
14,AAVLNYKAGRD [GRIN2A_Y737],inactive: 0.568
15,AAVLNYKAWRD [GRIN2A_Y737_G740W],inactive: 0.963
16,AALLNYKAGRD [GRIN2A_Y737_V734L],inactive: 0.732
17,DNLNNYVFQGQ [GRIN2A_Y978],inactive: 0.855
18,EIKLAYRRRPP [GRIN2B_Y1109_E1106K],inactive: 0.224
19,PDMHSYMVRYN [GRIN2D_Y732],inactive: 0.67

# Target: SHP2 N-SH2 domain T52S
# Assay: as above
# Settings: peptide library: pTyr-Var
row,Binder,enrichment score
1,EFTAGYNVKFD [GPX4_Y123_A120T],inactive: 0.897
2,LIDSSYLTRTA [GREB1L_Y1063],inactive: 0.529
3,PLYSKYWPNHI [GREB1L_Y1560_R1558S],inactive: 0.689
4,EGNERYEGFCV [GRIA3_Y451_YF],inactive: 0.567
5,EKMWSYMKSAE [GRIA3_Y705],inactive: 0.97
6,SNMPTYSGHFT [GRIN2A_Y1224],inactive: 0.545
7,SNMPTYSGHFS [GRIN2A_Y1224_T1229S],inactive: 0.662
8,LISVSYDDWDY [GRIN2A_Y281],inactive: 1.66
9,LIFVSYDDWDF [GRIN2A_Y281_S278F_YF],active: 3.89
10,LISVSYDDWDF [GRIN2A_Y281_YF],inactive: 1.47
11,IGEVVYQRAVM [GRIN2A_Y502],inactive: 0.921
12,IGEVVYQRAAM [GRIN2A_Y502_V506A],inactive: 0.794
13,LDAFIYDAAVL [GRIN2A_Y730],inactive: 1.14
14,AAVLNYKAGRD [GRIN2A_Y737],inactive: 0.711
15,AAVLNYKAWRD [GRIN2A_Y737_G740W],inactive: 0.96
16,AALLNYKAGRD [GRIN2A_Y737_V734L],inactive: 0.806
17,DNLNNYVFQGQ [GRIN2A_Y978],inactive: 1.19
18,EIKLAYRRRPP [GRIN2B_Y1109_E1106K],inactive: 0.218
19,PDMHSYMVRYN [GRIN2D_Y732],inactive: 0.598

# Target: SHP2 N-SH2 domain wild-type
# Assay: as above
# Settings: peptide library: pTyr-Var
row,Binder,enrichment score
1,EFTAGYNVKFD [GPX4_Y123_A120T],inactive: 0.969
2,LIDSSYLTRTA [GREB1L_Y1063],inactive: 0.799
3,PLYSKYWPNHI [GREB1L_Y1560_R1558S],inactive: 1.12
4,EGNERYEGFCV [GRIA3_Y451_YF],inactive: 0.823
5,EKMWSYMKSAE [GRIA3_Y705],inactive: 0.75
6,SNMPTYSGHFT [GRIN2A_Y1224],inactive: 0.518
7,SNMPTYSGHFS [GRIN2A_Y1224_T1229S],inactive: 0.906
8,LISVSYDDWDY [GRIN2A_Y281],inactive: 1.99
9,LIFVSYDDWDF [GRIN2A_Y281_S278F_YF],active: 3.42
10,LISVSYDDWDF [GRIN2A_Y281_YF],inactive: 1.15
11,IGEVVYQRAVM [GRIN2A_Y502],inactive: 0.896
12,IGEVVYQRAAM [GRIN2A_Y502_V506A],inactive: 1.34
13,LDAFIYDAAVL [GRIN2A_Y730],inactive: 1.03
14,AAVLNYKAGRD [GRIN2A_Y737],inactive: 0.727
15,AAVLNYKAWRD [GRIN2A_Y737_G740W],inactive: 0.907
16,AALLNYKAGRD [GRIN2A_Y737_V734L],inactive: 0.92
17,DNLNNYVFQGQ [GRIN2A_Y978],inactive: 1.3
18,EIKLAYRRRPP [GRIN2B_Y1109_E1106K],inactive: 0.359
19,PDMHSYMVRYN [GRIN2D_Y732],inactive: 0.574
